From article PMC6299665 (2018)

Key:
[1] = molecular target: T1, human OX40, histidine-tagged recombinant (human, UniProt P43489 29-214); assay: SPR
T1 chain: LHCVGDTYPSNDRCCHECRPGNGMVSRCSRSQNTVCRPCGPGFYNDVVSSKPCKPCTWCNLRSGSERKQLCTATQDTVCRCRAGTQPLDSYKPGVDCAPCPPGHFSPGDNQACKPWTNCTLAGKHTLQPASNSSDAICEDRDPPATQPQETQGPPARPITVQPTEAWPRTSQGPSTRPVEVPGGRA

[2] = molecular target: T2, human PD-L2, histidine-tagged recombinant (human, UniProt Q9BQ51 20-220); assay: SPR
T2 chain: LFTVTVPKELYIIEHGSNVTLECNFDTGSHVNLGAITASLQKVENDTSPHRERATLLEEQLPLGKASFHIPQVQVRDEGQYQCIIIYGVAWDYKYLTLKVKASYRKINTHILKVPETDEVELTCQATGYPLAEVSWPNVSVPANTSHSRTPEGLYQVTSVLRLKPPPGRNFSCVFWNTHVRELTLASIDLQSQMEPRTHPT

B1: human PD1-Fc-OX40L (Fc fusion)
chain: [omitted - about 400 residues with a human IgG4 Fc]QVSHRYPRIQSIKVQFTEYKKEKGFILTSQKEDEIMKVQNNSVIINCDGFYLISLKGYFSQEVNISLHYQKDEEPLFQLKKVRSVNSLMVASLTYKDKVYLNVTTDNTSLDDFHVNGGELILIHQNPGEFCVL
In the case of B1, the koff [1] is reported as 1.9e-05 s⁻¹ and the koff [2] is reported as 6.7e-05 s⁻¹.
